Source: PubChem BioAssay (NCI)
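The compound was tested at five concentrations on cells cultured in 96-well plates, with a 48-hour exposure period. At the GI50, growth is halved. Definition used: TGI = concentration required for complete inhibition of growth.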

Test system: NCI-H322M lung
Experiment: inhibition of tumour cell growth, NCI panel, 48 h

C[C@H](Nc1nc(NCCc2ccccc2)nc2ccccc12)c1ccccc1
GI50: 1.96 µM | TGI: 5.22 µM

Nc1nc2cc(-c3ccc4ncnc(NCc5ccccc5)c4c3)ccc2o1
GI50: 3.42 µM | TGI: 13.2 µM

O=C(NN1C(=O)/C(=C/C=C/c2ccc([N+](=O)[O-])o2)SC1=S)c1ccc(O)cc1
GI50: 5.55 µM | TGI: 18.7 µM

O=C(NN1C(=O)/C(=C/C=C/c2ccc([N+](=O)[O-])o2)SC1=S)c1ccncc1
GI50: 5.58 µM | TGI: 18.5 µM

O=C(/C=C/c1ccccc1Cl)c1nc2ccccc2n1Cc1ccc(F)cc1
GI50: 9.98 µM | TGI: > 100 µM
